Out of some 45,000 compounds screened, about 65 (0.1%) were called active. Calls come from the whole dose curve; as a rule, active = well fitted activation curve with a large enough effect; inconclusive = small, poorly fitted or top-dose-only effect; inactive = no such curve, though single readings can be large or run the other way. The list shows a part of the results.
target: Galactocerebrosidase (Homo sapiens) (UniProt P54803); experiment: A Novel Cell-Based Assay to Identify Small Molecules for B -Galactocerebrosidase; conditions: 145M-Twi-hGALC-G270D cells (Twitcher mouse brain line with human GALC G270D), HMU-beta-Gal fluorescence, 48 h; series mostly up to 57.5 µM; activation: at the top concentration; note: 0% is about no effect; nearly all actives have a fitted effect of over 65% in size
Chain of UniProt P54803 (P54803 whole entry, looked up): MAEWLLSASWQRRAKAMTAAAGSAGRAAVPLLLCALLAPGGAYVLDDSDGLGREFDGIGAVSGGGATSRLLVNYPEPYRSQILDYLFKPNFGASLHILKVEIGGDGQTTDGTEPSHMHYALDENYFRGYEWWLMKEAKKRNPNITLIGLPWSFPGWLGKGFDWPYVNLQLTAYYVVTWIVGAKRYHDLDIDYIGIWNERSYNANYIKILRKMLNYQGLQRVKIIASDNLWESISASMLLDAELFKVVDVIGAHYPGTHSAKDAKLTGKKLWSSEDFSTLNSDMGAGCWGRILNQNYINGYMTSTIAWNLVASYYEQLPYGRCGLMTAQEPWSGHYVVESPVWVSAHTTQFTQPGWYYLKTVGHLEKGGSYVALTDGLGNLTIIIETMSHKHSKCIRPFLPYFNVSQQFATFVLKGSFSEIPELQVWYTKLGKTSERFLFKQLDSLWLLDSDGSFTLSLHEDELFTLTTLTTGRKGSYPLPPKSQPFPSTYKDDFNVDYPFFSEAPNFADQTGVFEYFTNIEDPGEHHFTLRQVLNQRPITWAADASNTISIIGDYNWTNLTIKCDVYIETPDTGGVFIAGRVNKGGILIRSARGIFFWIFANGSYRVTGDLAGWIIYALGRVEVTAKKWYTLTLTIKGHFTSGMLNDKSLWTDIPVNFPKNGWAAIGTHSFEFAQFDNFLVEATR
Procedure, shortened: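 Mutant human GALC (G270D), stably expressed in a Twitcher mouse brain cell line lacking endogenous GALC, is measured in live-treated cells via 6-hexadecanoylamino-4-methylumbelliferyl-β-galactoside hydrolysis (0.1 mM final, pH 5.2) with fluorescent detection.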

activation, inactive:
COc1cc2nc(SCc3ccc(C)cc3)n3nc(CCn4nc(C)cc4C)nc3c2cc1OC -11.4%, CC(C)Cn1c(-c2cccc(Br)c2)nc2ccccc21 -2.66%, COC(=O)C(CCSC)Nc1ncnc2onc(-c3ccc(F)cc3)c12 (centres undefined) -11.3%, CCCOc1ccc(CNC(=O)C(NS(=O)(=O)c2cccs2)C(C)C)cc1 (centres undefined) -8.43%, COc1cc(Cl)c(C)cc1NC(=O)c1cnc(N2CCCCC2)c2ccccc12 -8.08%, OCc1cnc(SCc2ccccc2F)n1Cc1ccc(F)cc1 -18.6%, Cc1cc(C)cc(NC(=O)C(Cc2ccccc2)NS(=O)(=O)c2ccc3c(c2)CCC(=O)N3)c1 (centres undefined) -15.8%, CCOc1ccccc1NC(=O)C(=O)Nc1ccc2nc3n(c(=O)c2c1)CCCCC3 -2.92%, Cc1cc(C)c(NC(=O)C2CCCN(S(=O)(=O)c3c(C)noc3C)C2)c(C)c1 (centres undefined) -18.5%, Cc1ccccc1OCc1ccc(-c2nc(C#N)c(N3CCN(c4cccc(Cl)c4)CC3)o2)o1 -11.3%, O=C(c1ccccc1)N1c2nc(-c3ccco3)nn2C2(CCCCC2)[C@@H]2CCCC[C@@H]21 -1.2%, Cc1cc(C)cc(NC(=O)Cc2noc3ccccc23)c1 4.08%, CCN(CC)S(=O)(=O)c1ccc(C(=O)NCCSc2c(-c3ccccc3)[nH]c3ccccc23)cc1 -16.8%, CCC(=O)N1CCc2cc(S(=O)(=O)NCCC(=O)Nc3ccc(N(CC)CC)cc3C)ccc21 -19.3%, CCCCCCOc1ccc(C2C(=O)N(C3CCCCC3)CC(=O)N2C2CCCCC2)cc1 (centres undefined) -5.38%, NC(=O)c1cc(S(=O)(=O)N2CCN(c3cccc(C(F)(F)F)c3)CC2)cs1 -11.1%, COc1cc(NC(=O)CSc2c3c(nc4ccccc24)CCC3)cc(OC)c1OC -2.52%, O=C(c1ccc2c(c1)N(Cc1ccc(F)cc1)C(=O)c1ccccc1S2(=O)=O)N1CCCCC1 -3.73%, Cc1ccc(-c2nn3c(C)nnc3c3ccccc23)cc1S(=O)(=O)NCC(C)O (centres undefined) -10.8%, Cc1ccc(-n2ncc(C(=O)NCc3ccco3)c2C2CCN(C(=O)OC(C)(C)C)CC2)cc1C -6.02%, CCc1ccccc1N(C)C(=O)C1CCCN(c2ncnc3c2nc2n3CCCCC2)C1 (centres undefined) -28.3%, COc1cc(NC(=O)c2cc3cc4ccc(C)cc4nc3o2)cc(OC)c1OC -5.5%, O=C(CSc1nc2ccccc2nc1Cc1ccc(Cl)cc1)N1CCN(c2ccccc2)CC1 -1.12%, O=C(CSc1nc(-c2cccc(F)c2)[nH]c1-c1ccccc1)Nc1ccc2c(c1)OCO2 -17.2%, Cc1c(C(=O)Nc2cc(F)ccc2F)sc2nc(-c3ccc(F)cc3)cn12 -7.69%, Cc1ccc(-n2nc(C)c3c(C(F)(F)F)cc(-c4cccnc4)nc32)cc1Cl -8.57%, COc1ccccc1C(=O)Nc1c(C(=O)NC(C)(C)C)oc2ccccc12 -13.7%, COc1ccc(NC2=C(c3ccc(C(F)(F)F)cc3)C(=O)c3ccccc32)cc1 -15.1%, COc1cccc(NC(=O)CN2C(=O)c3ccccc3Sc3ncccc32)c1 -0.382%, Cc1ccc(-c2nc(C)c(CCNC(=O)c3ccccc3Br)s2)cc1 8.26%, COc1ccc(S(=O)(=O)N2CCN(c3ccccc3OC)CC2)cc1 -19.4%, CCOC(=O)c1ccc(NC(=O)c2cn3c4c(ccc(Cl)c4c2=O)OC(C)C3)cc1 (centres undefined) -10.2%, CCCc1nn2c(=O)cc(COC(=O)CNC(=O)COc3ccc(C)cc3)nc2s1 -7.61%, COc1cc(OC)c(N(C)C(=O)Nc2cn(CC(C)C)c(=O)c3ccccc23)cc1Cl -22.3%, CCOC(=O)c1sc(NC(=O)c2c(-c3ccccc3)c(-c3ccccc3)nn(C)c2=O)nc1C 7.7%, CC1CCN(C(=O)CSc2nc(-c3ccc(F)cc3)cc(C(F)(F)F)n2)CC1 -12%, CCCCOC(=O)c1ccc(NC(=O)c2sc3nc(C)cc(C)c3c2N)cc1 -23.8%, O=C(Cn1c(=O)nc(-c2ccccc2)c2ccccc21)Nc1ccc(Cl)cc1F -10.2%, COc1ccc(NC(=O)C2=C(C)Nc3nc(SCc4ccc(Cl)cc4)nn3C2c2cccc(OC)c2OC)cc1 (centres undefined) -9.4%, Cc1ccc(NC(=O)/C=C/c2ccccc2Cl)cc1Cl -17.7%, Cc1cc2c(cc1S(=O)(=O)Nc1cc(C(F)(F)F)cc(C(F)(F)F)c1)OCC(=O)N2 -18.8%, Cc1[nH]c(=O)c(C#N)cc1-c1ccc2nccn2c1 -8.01%, COc1ccc(N(C)C(=O)Cn2cc(S(=O)(=O)N3CCN(c4ccccc4F)CC3)c3ccccc3c2=O)c(OC)c1 -14.3%, CCc1ccc(Nc2nc3ccccc3nc2NS(=O)(=O)c2ccccc2)cc1 -32%, Cc1cccc(-n2c(=O)c3ccccc3n(Cc3ccc(F)cc3)c2=O)c1 -6.48%, O=C(NCCSc1c[nH]c2ccccc12)c1ccccc1Cl -16.1%, COc1ccc(NC(=O)C2CCN(S(=O)(=O)c3c(C)noc3/C=C/c3cccs3)CC2)cc1Cl -17.5%, Cc1nc2cccnc2n1C1CCN(C(=O)Nc2ccc(Cl)cc2)CC1 -19.5%, CCOc1ccc(-c2c(C)nn3c(C)c(C(=O)NCCc4ccc(C)cc4)cnc23)cc1OCC -15.6%, CCc1c(C)sc2c1CCN(Cc1ccccc1F)C2c1ccccc1 (centres undefined) -18.8%, COC(=O)Cc1c(C)c2ccc3c(c2oc1=O)CN(Cc1ccccc1Cl)CO3 -15.9%, COc1ccc2[nH]cc(CCN=C(NC(=O)c3ccccc3OC)Nc3nc(C)cc(C)n3)c2c1 -6.29%, CCc1cc2c(cc3c(=O)n(CC(=O)NCCc4ccc(OC)cc4OC)nc(CC)n32)s1 -5.37%, Cc1ccc(-n2cnnn2)cc1S(N)(=O)=O -6.71%, Cc1cc2[nH]c(=O)c(=O)[nH]c2cc1S(=O)(=O)N1CCN(c2cccc(Cl)c2)CC1 -12.6%, COC(=O)Cn1c(SCCOc2ccccc2OC)nc2ccccc21 -6.35%, CCCCCCCCOc1ccc(C(=O)c2ccccc2)c(O)c1 -7.98%, CNC(=O)CN1C(=O)COc2ccc(S(=O)(=O)N3CCC(C)CC3)cc21 0.974%, COCCNC(=O)c1ccccc1NC(=O)c1nsc2ccccc12 -9.65%, Cc1ccccc1Nc1c(-c2ccc(N3CCOCC3)cc2)nc2ccc(Br)cn12 -16%, CCSc1ncc(Cl)c(C(=O)Nc2cccc(Cl)c2)n1 -9.07%, Cc1ccc(NC(=O)c2ccc(NC(=O)CCS(=O)(=O)c3cccs3)cc2)cc1F -1.93%, COc1cccc(Cn2cc(C(=O)c3ccc(Cl)cc3)c(=O)c3ccccc32)c1 -8.11%, Cc1ccc(NC(=O)CCCc2nc(-c3ccco3)no2)cc1Cl -18.6%, COc1nccnc1NS(=O)(=O)c1ccc(N)cc1 -12.9%, COc1cccc(NC(=O)C(Cc2ccccc2)N2Cc3ccccc3C2=O)c1 (centres undefined) -20.2%, COc1ccc(-n2nnnc2C2CCN(S(=O)(=O)c3cccc(C(F)(F)F)c3)CC2)cc1 -0.456%, COc1ccc(-n2c(SCC(=O)NCc3ccc(Cl)cc3)nc3ccsc3c2=O)cc1 -2.37%, COc1cccc(-n2c(=O)c3cc(OC)c(OC)cc3n(CC(=O)Nc3ccc(F)cc3)c2=O)c1 -1.32%, COc1ccc(NS(=O)(=O)c2ccc(N3CCCCS3(=O)=O)cc2)cc1Cl -12.5%, COc1ccc(-c2noc(CCC(=O)N(C)c3cc(Cl)ccc3OC)n2)cc1 -13.9%, CC(C)CCOc1ccc(C(=O)NCC2OCCc3ccccc32)cc1 (centres undefined) -3.08%, CCOc1ccc(Nc2ncnc3c2c(-c2ccccc2)cn3-c2cccc(C)c2)cc1 -4.52%, Clc1ccc(-c2nnn3c2nc(NC2CCCCC2)c2ccccc23)cc1 -10.2%, CCOc1ccc(C(=O)N(Cc2ccc(C(C)C)cc2)Cc2ccco2)cc1 -9.17%, COc1cc(NC(=O)c2cccc(Cl)c2Cl)ccc1NC(=O)c1cc2ccccc2o1 -13.3%, CCS(=O)(=O)N1CCCc2cc(C(=O)Nc3cccc(C(C)=O)c3)ccc21 -7.43%, CCCc1cnc2c(c1SCC(=O)Nc1ccccc1OCC)c(=O)n(C)c(=O)n2C -14.6%, CCCn1c2ccc(F)cc2c2nnc(SCCN3CCCCC3)nc21 -13%, CCC(=O)N1CCc2cc(Br)cc(S(=O)(=O)CCC(=O)Nc3cccc(Cl)c3)c21 -17.2%, Cc1cccc(C)c1NC(=O)CN1CCCC1 -9.23%, COc1cccc(Cn2nc(SC)c(S(=O)(=O)c3ccccc3)c2N(C(C)=O)C(C)=O)c1 -5.95%, CCCSCCCNC(=O)c1ccc(C)c(NC(=O)c2nsc3ccccc23)c1 -17.2%, Cc1cc2c(cc1NS(=O)(=O)c1ccc(Br)cc1)n(C)c(=O)c(=O)n2C 0.201%, COc1cc2c(cc1OC)C(c1cccc(Cl)c1)CC(=O)N2 (centres undefined) -1.83%, N#CCC(=O)NN -15.5%, COc1ccc(N2CCN(S(=O)(=O)c3ccc(F)c(C(=O)Nc4ccccc4Cl)c3)CC2)cc1 -15.2%, Cn1nc(-c2ccccc2F)c2cc(C(=O)NCc3ccccc3Cl)sc21 -32.7%, COc1ccc(CC(=O)N2CCc3cc(OC)c(OC)cc3C2COc2ccc(F)cc2)cc1 (centres undefined) -18.9%, COc1ccc(OC)c(NC(=O)c2oc(=O)c3ccccc3c2-c2ccccc2)c1 -6.38%, CCOc1ccc(NCc2cccn2-c2nnc(N3CCC(C(=O)NCc4ccccc4Cl)CC3)s2)cc1 -13.2%, CCc1ccc(OCCSc2nc3ccccc3n2CC(=O)N2CCCCC2)cc1 -35.9%, O=C(c1ccc(F)cc1)N1CCc2c([nH]c3ccccc23)C1c1ccc(Cl)cc1 (centres undefined) -5.18%, COc1ccc(Cl)cc1NC(=O)N1CCN(S(=O)(=O)c2ccc3c(ccn3C)c2)CC1 -4.69%, CC(C)(C)OC(=O)N1CCC(c2c(C(=O)NCc3cccs3)cnn2-c2cccc(F)c2)CC1 -20.2%, CCCCNC(=O)c1cccc(NC(=O)c2nsc3ccccc23)c1 -14.6%, COc1cccc(OC)c1C(=O)NCCc1sc(-c2cccc(F)c2)nc1C -15.8%, COc1ccc(S(=O)(=O)N2CCC(Oc3ccc(-n4cnnn4)cc3)CC2)cc1 -5.79%, COc1cc(/C=C(\C#N)c2nc3ccc(C)cc3[nH]2)ccc1OCc1ccc(C)cc1 -16.9%

Source: PubChem BioAssay AID1159614 (National Center for Advancing Translational Sciences (NCATS), 2016)
